Laboratory results reported in the supplement of paper PMC3334620.
Over roughly 33,000 sequences, “E-score (-0.5 to 0.5)” has its median near -0.056; the highest 2% begin near 0.38. This is one part of the list.

Each sequence was assayed against Stb4 (UniProt P50104) (assay: PBM E-score (8-mer binding enrichment) (E-score (-0.5 to 0.5)); higher = stronger / more preferred TF binding; most listed sequences are background and not binding sites). Conditions: protein concentration: 200 nM; construct: GST-DNA-binding domain.
Method in brief: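 Universal all-10-mer Agilent arrays, fresh or stripped once, were converted to double-stranded form by primer extension. GST-tagged yeast transcription factors from PURExpress in vitro transcription/translation, full-length or DNA-binding domain only, were applied at about 100-200 nM and detected with fluorescent anti-GST. After masliner normalisation, the Universal PBM Analysis Suite scored each ungapped eight-base word together with its reverse complement by E-score.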

Sequence | PBM E-score
GAACGTGC | -0.109
CGTGCAAA | -0.154
CCAGATCC | 0.0602
GGCAAACA | 0.0353
ACGGTCCG | 0.241
GGGCACAA | -0.115
GTCGAAGA | -0.178
CGACGTAC | 0.0486
CGTAGACG | -0.0949
GCGTGTAA | -0.243
CGCCCTAC | -0.236
AACAACTC | -0.134
CTCAAGAC | -0.0435
ACCTATAG | -0.331
AGGCCATG | -0.12
GCAAAAAC | -0.0252
CCTCATAC | -0.0239
TCAGTAAA | -0.0926
CTCACCCC | 0.0242
CGCCGCGA | 0.0875
GTTAACTA | 0.0345
CGTCCCAA | -0.155

Sequence | PBM E-score
CATCTCCC | 0.205
AACCGACT | 0.215
CGACTGCA | -0.0596
AACAAACC | 0.161
AGTGACTA | -0.106
ACAGATGC | -0.0741
CCGTCTAA | 0.134
CTGTAAGA | -0.175
ATGAAAAT | 0.0835
TAAGAGGA | -0.101
ATGGCCAC | -0.251
CAGTTCAG | -0.284
AAAATTAC | 0.0435
AAGGCGAG | -0.204
GTTGAAAA | 0.107
CCGATCAA | 0.24
GGATGAAC | 0.216
GTCGGCCA | -0.0483
CCCTAAAA | -0.234
ACCAAGCG | -0.111
AACGGACT | 0.0278
ACGGCACA | 0.145

Sequence | PBM E-score
GTTTATTA | 0.126
GTCCTCCA | -0.138
ACATCCAA | -0.0853
GGGCGGAA | 0.308
CCTAGGAG | -0.0756
TAATAGTA | 0.0223
ATCGGAAG | 0.433
AAAAGATT | -0.0765
CAGAGCTA | -0.215
CGCACAAG | -4e-05
CACATTTC | 0.00324
GGTGCCTA | -0.0355
CAATACAA | -0.00033
CATAACTA | -0.159
GAGGAGAA | -0.115
CAGGGAGC | -0.277
CTCAGTGC | -0.109
CGGGTACG | 0.333
CTTAGCCA | -0.21
TACATGTA | -0.155
CCCCCCAC | -0.3
CCAGACTA | -0.229

Sequence | PBM E-score
ATGGGACC | -0.189
CCAATTAG | -0.165
CTAGCGCA | -0.318
CTCGGGAA | 0.462
AGTAACAC | 0.0427
ATCTAATC | -0.0169
CTAGTAAG | -0.188
CTTGAGTA | -0.191
ACAGAAGG | -0.201
ACGCTACT | 0.132
ATTTATAA | 0.00745
AGATCATC | -0.0349
CAGGCAGC | -0.201
ACGAAGAG | -0.117
AGAGCTAA | -0.217
CCGGATGC | 0.396
ATACTCTG | -0.0469
ATAGTTGA | -0.00074
AAGGAGAA | -0.0453
CTTGATTC | 0.0888
